From PubChem BioAssay AID504706 (National Center for Advancing Translational Sciences (NCATS), 2011)
In all, about 320,000 compounds went through this assay and about 200 (0.062%) were called active. Inconclusive means that the source gave no clear call. Such entries were picked first, then a sample of the others. The call rests on the fitted dose curve; in most records, active means well fitted activation curve with a large enough effect; inconclusive means small, poorly fitted or top-dose-only effect; inactive means no such curve, though single readings can be large or run the other way. Potencies of inconclusive entries are left out as doubtful fits.

test: qHTS assay for re-activators of p53 using a Luc reporter; conditions: H1299 p53-A138V BP100-luciferase reporter, luminescence, 24 h; series mostly up to 92.2 µM; activity change, positive = activation: at the top concentration; further: nearly all actives have a fitted effect of over 45% in size; on activity change, positive = activation: % of control where 0% means no effect
Outline: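 H1299 (p53-null), stable ts p53-A138V + BP100-Luc; 1000 cells/well, Opti-MEM/10% FBS; cpd 4 pt, 1:5; 24 h, 37 deg C, 5% CO2; detection reagent 10 min RT; luminescence.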
Potency means the concentration at half of the fitted maximal effect; tags describe the fitted curve by direction and shape.

SMILES | Potency | activity change, positive = activation
CCOC(=O)c1nc2nc(C)cc(=O)n2[nH]1 | inconclusive [activator, single point] | –
Cc1cccc(NC(=O)Nc2ccc3c(c2)CCC3)c1 | inconclusive [activator, partial curve, poor fit] | –
CCc1ccc(CNC(=O)Cc2ccc(NC(=O)C3=C(C)OCCS3)cc2)cc1 | inconclusive [activator, partial curve, poor fit] | –
O=C(Nc1ccncc1)c1c(F)c(F)c(F)c(F)c1F | inconclusive [activator, partial curve, poor fit] | –
Cc1noc(NS(=O)(=O)c2ccc(N/C=C\C(=O)c3ccc(Br)cc3)cc2)c1C | – | inactive: 4.64%
Cc1ccc(/C=C/C(=O)c2c(C)nc3ccccn23)cc1 | inconclusive [activator, partial curve, poor fit] | –
NNC(=O)c1ccc(COc2cccc3cccnc23)cc1 | inconclusive [activator, full curve, poor fit] | –
CNc1ncc(Cc2ccccc2)s1 | – | inactive: 23.3%
O=c1cc(-c2ccccc2Cl)oc2cc(O)cc(O)c12 | – | inactive: 7.36%
Cc1ccc(C(=O)Nc2nc3ccccc3c(=O)s2)cc1 | inconclusive [activator, partial curve, poor fit] | –
CCc1ccccc1NC(=S)N1CCN(c2ccccc2F)CC1 | – | inactive: 19.2%
O=C(Nc1ccccn1)C1COc2ccccc2O1 (configuration not stated) | inconclusive [activator, partial curve, poor fit] | –
O=C(NNC(=O)c1ccc2ccccc2c1O)c1ccccc1Cl | – | inactive: 8.41%
C=CCn1c(SCC#N)nnc1-c1ccc2ncccc2c1 | – | inactive: -2.09%
COc1cccc(/C=C/C(=O)Nc2ccc(OC)nc2)c1 | inconclusive [activator, full curve, poor fit] | –
COc1ccc(C(=O)O/N=C(\N)c2ccc(OC)c(OC)c2)c(OC)c1 | inconclusive [activator, full curve] | –
CCOc1ccc(NC(=O)NNC(=O)c2cc3ccccc3cc2O)cc1 | inconclusive [activator, single point] | –
Cc1ccccc1OCCC(=O)Nc1ccc(F)c(Cl)c1 | – | inactive: 13.4%
CC1=CN2C(=N)/C(=C/c3ccco3)C(=O)N=C2S1 | inconclusive [activator, partial curve, poor fit] | –
Cc1ccc(C(=O)Nc2ccc([N+](=O)[O-])cn2)o1 | inconclusive [activator, partial curve, poor fit] | –
COc1ccc(-c2[nH]ncc2/C=N\NC(=O)c2ccc(C(C)(C)C)cc2)cc1OC | inconclusive [activator, partial curve, poor fit] | –
COc1ccc(C(=O)Nc2cc(C(=O)NCCc3ccccc3)ccc2Cl)cc1 | inconclusive [activator, partial curve, poor fit] | –
CC(=O)Oc1ccccc1C(=O)NC(C)CCc1ccccc1 (configuration not stated) | – | inactive: 0.446%
CCSc1nnc(NC(=O)c2ccc(C)cc2)s1 | inconclusive [activator, partial curve, poor fit] | –

SMILES | Potency | activity change, positive = activation
O=C(NC(=S)Nc1ccccc1Cl)c1ccco1 | inconclusive [activator, full curve] | –
N/C(=N\OC(=O)C(c1ccccc1)c1ccccc1)c1ccccn1 | inconclusive [activator, partial curve, poor fit] | –
O=C(Nc1cccc(-c2csc(Nc3ccccc3)n2)c1)c1cc([N+](=O)[O-])cc(C(F)(F)F)c1 | – | inactive: 20.9%
Cn1c(COc2ccccc2)nnc1SCC(=O)Nc1ccc2c(c1)OCO2 | inconclusive [activator, single point] | –
CCOc1ccc2nc(NC(=O)CSC3=NCCS3)sc2c1 | inconclusive [activator, full curve, poor fit] | –
COC(=O)c1sc(NC(=O)COc2ccccc2)nc1C | inconclusive [activator, partial curve, poor fit] | –
N#C/C(=C\c1cccc(OCC(=O)O)c1)c1nc2ccccc2[nH]1 | inconclusive [activator, single point] | –
Cc1ccc(-c2[nH]c3ccccc3c2C(C[N+](=O)[O-])c2ccco2)cc1 (configuration not stated) | – | inactive: -15.2%
O=C(O)c1cn(-c2ccccc2)nc1-c1cccnc1 | – | inactive: -1.7%
CCCCNC(=S)N/N=C/c1ccc(C)s1 | inconclusive [activator, full curve, poor fit] | –
C=CCc1c(C)nc2c(OC)cccc2c1Cl | – | inactive: 9.62%
Cc1ccc(C(NC(=O)N2CCCCC2)=C(Cl)Cl)cc1F | – | inactive: -8.22%
CC(C)(C)c1csc(NNC(=O)c2ccc(Br)cc2)n1 | inconclusive [activator, partial curve, poor fit] | –
Cc1nn(CCOc2ccccc2)c(=O)n1-c1ccccc1 | – | inactive: 3.73%
CC1CCCC(NC(=O)c2ccc3c(=O)n(CC4CCCO4)c(=O)[nH]c3c2)C1C (configuration not stated) | – | inactive: -32.6%
CCCNC(=O)Cn1cnc2sc(C(=O)N3CCCC(C(=O)OCC)C3)c(C)c2c1=O (configuration not stated) | inconclusive [activator, partial curve, poor fit] | –
O=c1oc2cc(O)ccc2cc1-c1ccccc1 | inconclusive [activator, partial curve, poor fit] | –
Nc1nnc(SCc2cc3c(cc2Cl)OCO3)s1 | inconclusive [activator, single point] | –
COc1ccc(-c2cc(-c3ccccc3O)[nH]n2)cc1 | inconclusive [activator, full curve, poor fit] | –
O=C1c2ccccc2-c2ccc(C(=O)N3CCOCC3)cc21 | inconclusive [activator, partial curve, poor fit] | –
CCc1nnc(N/N=C\c2ccc(OC(C)=O)c(OC)c2)n1N | – | inactive: -10.1%
O=C(Nc1ccc(N=Nc2ccccc2)cc1)c1ccccc1Cl | inconclusive [activator, partial curve, poor fit] | –
O=C(COC(=O)c1ccc(O)cc1O)Nc1ccc2c(c1)OCCO2 | inconclusive [activator, full curve, poor fit] | –
Cc1ccc(Nc2nnc(SCC(=O)Nc3cccc(S(=O)(=O)N4CCCCC4)c3)s2)cc1 | inconclusive [activator, partial curve, poor fit] | –

SMILES | Potency | activity change, positive = activation
Cc1scc(C(=O)NNC(=S)NCC(C)C)c1C | inconclusive [activator, partial curve, poor fit] | –
COC(=O)c1sc(-c2ccc(C(C)(C)C)cc2)cc1NC(=O)c1ccccc1C(=O)O | inconclusive [activator, partial curve, poor fit] | –
O=C1NN(c2ccccc2)C(=O)/C1=C\c1ccc2c(c1)OCO2 | inconclusive [activator, single point] | –
O=[N+]([O-])c1cccc(Cl)c1CSc1ccccn1 | – | inactive: 0.361%
O=S(=O)(Nc1cccc(-c2cn3ccsc3n2)c1)c1ccc(F)cc1 | – | inactive: -3.29%
O=C(CSc1ccc(-c2ccccn2)nn1)Nc1cccc(F)c1 | inconclusive [activator, full curve, poor fit] | –
Cc1cc(C(=O)NCCC2=CCCCC2)c(C)o1 | inconclusive [activator, partial curve, poor fit] | –
Fc1ccc(OCc2nnc(-c3ccccc3Br)o2)c(Cl)c1 | inconclusive [activator, full curve] | –
CC1CCCC(C)N1C(=O)c1cc(-c2cccs2)on1 (configuration not stated) | inconclusive [activator, full curve, poor fit] | –
Nc1nc(CCl)nc(Nc2ccc3ccccc3c2)n1 | inconclusive [activator, partial curve, poor fit] | –
O=C(N/N=C/c1ccccn1)C12CC3CC(CC(C3)C1)C2 | inconclusive [activator, single point] | –
Cc1cccc(CSC2=NN3CCCC(=O)N=C3S2)c1 | inconclusive [activator, partial curve, poor fit] | –
Cc1csc2ncc(C(=O)Nc3ccccc3F)c(=O)n12 | inconclusive [activator, full curve, poor fit] | –
CCOc1ccc2nc(NC(=O)CSc3nnc(-c4ccncc4)n3CC3CCCO3)sc2c1 (configuration not stated) | – | inactive: 23.9%
CN(C)c1ccc(/C=N/NC(=O)CCC(=O)NCc2ccccc2)cc1 | – | inactive: 16.6%
CC(/C=N/NC(=O)c1nn(C)c(C)c1Br)=C\c1ccccc1 | inconclusive [activator, partial curve, poor fit] | –
O=C(COc1ccc(Br)cc1)Nc1ccncc1 | – | inactive: 3.45%
O=C(Nc1nc2c(Br)cccc2s1)C1CC1 | – | inactive: 3.14%
COc1ccc(/C=C/C(=O)NCC(=O)N/N=C(\C)Cc2ccccc2)cc1 | – | inactive: 1.11%
COc1cccc2cc(C(=O)OCC(=O)N3CC(C)OC(C)C3)c(=O)oc12 (configuration not stated) | inconclusive [activator, full curve, poor fit] | –
Clc1cc2nc(-c3cccnc3Cl)[nH]c2cc1Cl | inconclusive [activator, full curve, poor fit] | –
COc1ccc(C(=O)NC(=S)Nc2ccccc2N2CCOCC2)cc1[N+](=O)[O-] | – | inactive: -2.34%
CCCCNc1c(-c2ccc(-c3ccc(C(C)=O)cc3)c(OC)c2)nc2cc(C)ccn12 | – | inactive: 1.57%
Cc1cc(C(=O)COC(=O)c2ccc[nH]c2=O)c(C)n1-c1ccccc1 | inconclusive [activator, full curve, poor fit] | –
